Measured values taken from PMC8429438, “DnaJC7 binds natively folded structural elements in tau to inhibit amyloid formation” (Nature Communications, 2021).

Biological target: T1, DnaJC7 (full-length, wild type, recombinant) (UniProt Q99615 1-494)
T1 construct: DnaJC7, class-C J-domain protein with TPR1, TPR2a, TPR2b and a C-terminal J domain; called full-length DnaJC7; Plasmid was a gift (A. Joachimiak); also called DnaJC7WT; WT DnaJC7
T1 sequence (looked up): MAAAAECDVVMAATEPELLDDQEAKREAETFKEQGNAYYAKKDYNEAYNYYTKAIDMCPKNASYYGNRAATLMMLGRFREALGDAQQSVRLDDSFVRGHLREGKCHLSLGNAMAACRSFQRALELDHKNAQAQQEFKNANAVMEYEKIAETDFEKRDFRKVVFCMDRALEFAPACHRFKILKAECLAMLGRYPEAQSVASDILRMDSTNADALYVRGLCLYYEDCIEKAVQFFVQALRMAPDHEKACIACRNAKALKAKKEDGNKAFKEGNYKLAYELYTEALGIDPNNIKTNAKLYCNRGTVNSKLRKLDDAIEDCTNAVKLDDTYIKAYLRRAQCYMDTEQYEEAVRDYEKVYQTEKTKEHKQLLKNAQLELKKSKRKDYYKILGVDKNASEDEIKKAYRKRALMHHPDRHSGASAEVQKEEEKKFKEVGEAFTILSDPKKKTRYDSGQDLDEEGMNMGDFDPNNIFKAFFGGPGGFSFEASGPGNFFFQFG
Assay: MST; Cy5-labelled wild-type or mutant tau/tauRD titrated with a serial two-fold dilution of DnaJC7 or single DnaJC7 domains; Monolith NT.115; technical triplicates; fit in PALMIST with a 1:1 binding model
Settings: both partners purified

B1: full-length 2N4R P301L tau (natural protein)
chain: not shown
modifications: Cy5 (Cyanine5 NHS ester) label in MST
notes: microtubule-associated protein tau, 2N4R isoform, full length, with the disease-associated P301L mutation; also called full-length P301L tau mutant; source: E. coli BL21 (DE3), pET28b, purified
Kd: 8.3 ± 2.2 µM
